Data taken from the supplement of paper PMC10126150.
Sequences with one replicate were seen in a single cluster, so their values are uncertain.

Each sequence was assayed on ATP (assay: switch fluorescence ratio, 500 uM ATP over buffer (Cy3 cluster intensity, sum of 5 cycles each) (fold (ratio)); higher = stronger signal-on switching upon ATP binding; sequences stand for … in TCGTCGGCAGCGTCAGATGTGTATAAGAGACAGTTTTTTTTTTTTTTTTTTTTTTTTT…TC). Conditions: aptamer strand: ATP DNA aptamer (quencher-CACCTGGGGGAGTATTGCGGAGGAAGG + anchor), 100 nM annealed; ATP concentration: 500 uM; one replicate.
In short: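 Exposure to 500 uM ATP lasted 15 min at 22 °C before imaging, and a selection-buffer image was taken beforehand, for Cy3-labelled switching-strand clusters on a modified Illumina MiSeq flow-cell annealed to 100 nM quencher-labelled ATP aptamer. Five buffer/ATP cycles were run with NaOH stripping and re-annealing between them. The fluorescence ratio per cluster is summed target-cycle over summed buffer-cycle Cy3 intensity, averaged per switch-domain sequence. Clusters outside 100-1000 RFU were excluded.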
CTGGGTTTAG was tested, and the switch fluorescence ratio was 0.963.
CTGGTACGTG gave a switch fluorescence ratio of 0.958.
Work on CTGGTCACAT yielded a switch fluorescence ratio of 0.973.
In the case of CTGGTCTGCA, the switch fluorescence ratio is reported as 1.16.
CTGGTGTCGT was tested, and the switch fluorescence ratio was 0.968.
CTGGTGTGG showed a switch fluorescence ratio of 0.958.
CTGGTTTTTA showed a switch fluorescence ratio of 0.941.
CTGTAATGAA was tested, and the switch fluorescence ratio was 0.978.
For CTGTAGCTTG, the switch fluorescence ratio was 1.09.
In the case of CTGTAGGGTG, the switch fluorescence ratio is reported as 0.976.
In the case of CTGTATGTGG, the switch fluorescence ratio is reported as 1.03.
CTGTCCAGGT was tested, and the switch fluorescence ratio was 1.4.
Work on CTGTCTGGGA yielded a switch fluorescence ratio of 0.98.
Work on CTGTCTTACA yielded a switch fluorescence ratio of 0.988.
CTGTCTTTTT was tested, and the switch fluorescence ratio was 1.02.
CTGTGAGGCC showed a switch fluorescence ratio of 0.882.
Sequence CTGTGCCACG has a switch fluorescence ratio of 0.977.
In the case of CTGTGGCGGA, the switch fluorescence ratio is reported as 1.04.
With CTGTGGGAG the switch fluorescence ratio was 1.
CTGTGGTCAC was tested, and the switch fluorescence ratio was 1.01.
In the case of CTGTGTGCGA, the switch fluorescence ratio is reported as 1.05.
In the case of CTGTGTGGTT, the switch fluorescence ratio is reported as 0.978.
CTGTTAACGA showed a switch fluorescence ratio of 0.999.
For CTGTTAACGT, the switch fluorescence ratio was 1.02.
With CTGTTAAGGG the switch fluorescence ratio was 0.985.
Work on CTGTTAAGTA yielded a switch fluorescence ratio of 1.
Sequence CTGTTACGGT has a switch fluorescence ratio of 1.02.
In the case of CTGTTAGGCA, the switch fluorescence ratio is reported as 1.01.
CTGTTAGTT was tested, and the switch fluorescence ratio was 1.02.
CTGTTATGGG showed a switch fluorescence ratio of 0.971.
In the case of CTGTTGCTCA, the switch fluorescence ratio is reported as 0.969.
CTGTTGGAA showed a switch fluorescence ratio of 0.978.
In the case of CTGTTGGT, the switch fluorescence ratio is reported as 0.977.
In the case of CTGTTGTATT, the switch fluorescence ratio is reported as 0.991.
Sequence CTTAACCAAC has a switch fluorescence ratio of 1.15.
Work on CTTAAGGCTA yielded a switch fluorescence ratio of 0.999.
CTTAAGTTTT was tested, and the switch fluorescence ratio was 0.987.
For CTTAATAGTC, the switch fluorescence ratio was 0.95.
In the case of CTTACAGGAG, the switch fluorescence ratio is reported as 1.04.
Work on CTTACATTTG yielded a switch fluorescence ratio of 1.01.
With CTTACCTGT the switch fluorescence ratio was 1.
Sequence CTTACCTTGG has a switch fluorescence ratio of 1.02.
Sequence CTTACGTTTT has a switch fluorescence ratio of 0.979.
In the case of CTTACTATTA, the switch fluorescence ratio is reported as 1.02.
For CTTAGAGAA, the switch fluorescence ratio was 1.01.
In the case of CTTAGCGGAG, the switch fluorescence ratio is reported as 0.966.
CTTAGGATG showed a switch fluorescence ratio of 1.03.
With CTTAGGCAGT the switch fluorescence ratio was 0.998.
CTTAGGCATG was tested, and the switch fluorescence ratio was 0.958.
For CTTAGGGAAA, the switch fluorescence ratio was 0.957.
In the case of CTTAGGGAAC, the switch fluorescence ratio is reported as 3.1.
Work on CTTAGTGATT yielded a switch fluorescence ratio of 1.
CTTAGTTAGG showed a switch fluorescence ratio of 1.
For CTTATCTGGA, the switch fluorescence ratio was 1.
In the case of CTTATGAGAT, the switch fluorescence ratio is reported as 0.983.
Sequence CTTATGGCTC has a switch fluorescence ratio of 0.999.
CTTATTTCGC showed a switch fluorescence ratio of 1.04.
Sequence CTTCAATCCA has a switch fluorescence ratio of 0.987.
Sequence CTTCACCATT has a switch fluorescence ratio of 0.998.
CTTCAGTCTG gave a switch fluorescence ratio of 0.979.
Work on CTTCCCTAGT yielded a switch fluorescence ratio of 1.16.
Sequence CTTCCGTATA has a switch fluorescence ratio of 4.24.
CTTCCTTGTG was tested, and the switch fluorescence ratio was 1.13.
Sequence CTTCGAACCC has a switch fluorescence ratio of 1.07.
CTTCGAATGT gave a switch fluorescence ratio of 1.02.
Work on CTTCGAGGGG yielded a switch fluorescence ratio of 1.
For CTTCGATAAG, the switch fluorescence ratio was 1.02.
CTTCGCAGGT showed a switch fluorescence ratio of 2.88.
In the case of CTTCGCCGGC, the switch fluorescence ratio is reported as 1.12.
Sequence CTTCGCCTAT has a switch fluorescence ratio of 1.55.
Sequence CTTCGCGAGA has a switch fluorescence ratio of 1.14.
Sequence CTTCGGGATT has a switch fluorescence ratio of 1.03.
For CTTCGTCGAG, the switch fluorescence ratio was 0.996.
CTTCTCGTGG showed a switch fluorescence ratio of 1.02.
CTTCTGATGC showed a switch fluorescence ratio of 1.55.
CTTCTGCTTC showed a switch fluorescence ratio of 1.02.
